# Assay results published in the supplement of paper PMC8728848.
# Some of the results follow.
# B1: PX14375C-bth-509-28-509 (Bacteroides thetaiotaomicron) (protein)
# chain: RSPQGQFTEDDNPNALVNGKIYNVYTMMRSFDITAGTPAIAIHYLRSEDSEKGSIPSDGSDVAEMYDDFLYTPTNGLLGSYWGKNYAIIYQCNDILDAIAEKETAGQTETEDIINKGEASFFRAYCYFNLVRAFGEVPLVTYKINDASEANIPKTTADKIYEQIDTDLKTAEESLPETWSTEYTGRLTWGAARSLHARTYMMRSDWDNMYKASTDVINKGLYNLKTPYNEIFTDDGENSGGSIFELQCTATAALPQSDVIGSQFCEVQGVRGAGQWDLGWGWHMATQLMADAYETGDPRKNATLLYFRKTDDEPITPENTNEPYGESPISPAMGAYFNKKAYTDPALRKEYTNKGFWVNIRLIRYSDVVLMAAEAANEKNIPGEAVDYLEMVRARARGTNTNILPKITTNDQGELREAIRHERRVELGLEPDRFYDLVRWGIASEVLHAAGKVNYQDKNALLPLPQSEIDKSKGVLVQNPDY
# Legend:
# Assay in all cases: glycan array binding signal (z-score within array); higher = stronger binding
# Conditions in all cases: glycan notation: IUPAC condensed, linker removed
# Fuc(a1-2)Gal = target: Fuc(a1-2)Gal
# Procedure, shortened: (§1)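 The Consortium for Functional Glycomics database supplied 3228 glycan arrays, of which those lacking an available protein sequence were dropped. The binding signal, a within-array Z-score, was averaged across arrays of the same protein sequence and across linkers. Negative scores can be read as non-binding.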
# Fuc(a1-2)Gal(b1-3)GalNAc = target: Fuc(a1-2)Gal(b1-3)GalNAc
# Procedure, shortened: as §1
# [1] = target: Fuc(a1-2)Gal(b1-3)GalNAc(a1-3)[Fuc(a1-2)]Gal(b1-4)Glc
# Procedure, shortened: as §1
# [2] = target: Fuc(a1-2)Gal(b1-3)GalNAc(a1-3)[Fuc(a1-2)]Gal(b1-4)GlcNAc
# Procedure, shortened: as §1
# [3] = target: Fuc(a1-2)Gal(b1-3)GalNAc(b1-3)Gal
# Procedure, shortened: as §1
# [4] = target: Fuc(a1-2)Gal(b1-3)GalNAc(b1-3)Gal(a1-4)Gal(b1-4)Glc
# Procedure, shortened: as §1
# [5] = target: Fuc(a1-2)Gal(b1-3)GalNAc(b1-4)[Neu5Ac(a2-3)]Gal(b1-4)Glc
# Procedure, shortened: as §1
# Fuc(a1-2)Gal(b1-3)GlcNAc = target: Fuc(a1-2)Gal(b1-3)GlcNAc
# Procedure, shortened: as §1
# [6] = target: Fuc(a1-2)Gal(b1-3)GlcNAc(b1-2)Man(a1-3)[Fuc(a1-2)Gal(b1-3)GlcNAc(b1-2)Man(a1-6)]Man(b1-4)GlcNAc(b1-4)GlcNAc
# Procedure, shortened: as §1
# [7] = target: Fuc(a1-2)Gal(b1-3)GlcNAc(b1-2)Man(a1-3)[Fuc(a1-2)Gal(b1-3)GlcNAc(b1-2)Man(a1-6)]Man(b1-4)GlcNAc(b1-4)[Fuc(a1-6)]GlcNAc
# Procedure, shortened: as §1
# [8] = target: Fuc(a1-2)Gal(b1-3)GlcNAc(b1-3)Gal(b1-4)Glc
# Procedure, shortened: as §1
# [9] = target: Fuc(a1-2)Gal(b1-3)GlcNAc(b1-3)GalNAc
# Procedure, shortened: as §1
# [10] = target: Fuc(a1-2)Gal(b1-3)GlcNAc(b1-3)[Fuc(a1-2)Gal(b1-3)GlcNAc(b1-6)]GalNAc
# Procedure, shortened: as §1
# [11] = target: Fuc(a1-2)Gal(b1-3)GlcNAc(b1-3)[Gal(b1-4)GlcNAc(b1-6)]Gal(b1-4)Glc
# Procedure, shortened: as §1
# [12] = target: Fuc(a1-2)Gal(b1-3)GlcNAc(b1-3)[Neu5Ac(a2-6)Gal(b1-4)GlcNAc(b1-6)]Gal(b1-4)Glc
# Procedure, shortened: as §1
# [13] = target: Fuc(a1-2)Gal(b1-3)GlcNAc6S
# Procedure, shortened: as §1
# [14] = target: Fuc(a1-2)Gal(b1-3)[Fuc(a1-4)]GlcNAc
# Procedure, shortened: as §1
# [15] = target: Fuc(a1-2)Gal(b1-3)[Fuc(a1-4)]GlcNAc(b1-2)Man(a1-3)[Fuc(a1-2)Gal(b1-3)[Fuc(a1-4)]GlcNAc(b1-2)Man(a1-3)]Man(b1-4)GlcNAc(b1-4)GlcNAc
# Procedure, shortened: as §1
# [16] = target: Fuc(a1-2)Gal(b1-3)[Fuc(a1-4)]GlcNAc(b1-2)Man(a1-3)[Fuc(a1-2)Gal(b1-3)[Fuc(a1-4)]GlcNAc(b1-2)Man(a1-6)]Man(b1-4)GlcNAc(b1-4)[Fuc(a1-6)]GlcNAc(b1-4)[Fuc(a1-6)]GlcNAc
# Procedure, shortened: as §1
# [17] = target: Fuc(a1-2)Gal(b1-3)[Fuc(a1-4)]GlcNAc(b1-3)[Fuc(a1-3)[Gal(b1-4)]GlcNAc(b1-6)]Gal(b1-4)Glc
# Procedure, shortened: as §1
# [18] = target: Fuc(a1-2)Gal(b1-3)[Fuc(a1-4)]GlcNAc(b1-3)[Gal(b1-4)GlcNAc(b1-6)]Gal(b1-4)Glc
# Procedure, shortened: as §1
# Fuc(a1-2)Gal(b1-4)Glc = target: Fuc(a1-2)Gal(b1-4)Glc
# Procedure, shortened: as §1
# Fuc(a1-2)Gal(b1-4)Glc6S = target: Fuc(a1-2)Gal(b1-4)Glc6S
# Procedure, shortened: as §1
# Fuc(a1-2)Gal(b1-4)GlcNAc = target: Fuc(a1-2)Gal(b1-4)GlcNAc
# Procedure, shortened: as §1
# [19] = target: Fuc(a1-2)Gal(b1-4)GlcNAc(b1-2)Man
# Procedure, shortened: as §1
# [20] = target: Fuc(a1-2)Gal(b1-4)GlcNAc(b1-2)Man(a1-3)[Fuc(a1-2)Gal(b1-4)GlcNAc(b1-2)Man(a1-6)]Man(b1-4)GlcNAc(b1-4)GlcNAc
# Procedure, shortened: as §1
# [21] = target: Fuc(a1-2)Gal(b1-4)GlcNAc(b1-2)Man(a1-3)[Fuc(a1-2)Gal(b1-4)GlcNAc(b1-2)Man(a1-6)]Man(b1-4)GlcNAc(b1-4)[Fuc(a1-6)]GlcNAc
# Procedure, shortened: as §1
# [22] = target: Fuc(a1-2)Gal(b1-4)GlcNAc(b1-2)[Fuc(a1-2)Gal(b1-4)GlcNAc(b1-4)]Man(a1-3)[Fuc(a1-2)Gal(b1-4)GlcNAc(b1-2)Man(a1-6)]Man(b1-4)GlcNAc(b1-4)GlcNAc
# Procedure, shortened: as §1
# [23] = target: Fuc(a1-2)Gal(b1-4)GlcNAc(b1-3)Gal(b1-4)GlcNAc
# Procedure, shortened: as §1
# [24] = target: Fuc(a1-2)Gal(b1-4)GlcNAc(b1-3)Gal(b1-4)GlcNAc(b1-2)Man(a1-3)[Fuc(a1-2)Gal(b1-4)GlcNAc(b1-3)Gal(b1-4)GlcNAc(b1-2)Man(a1-6)]Man(b1-4)GlcNAc(b1-4)GlcNAc
# Procedure, shortened: as §1
# [25] = target: Fuc(a1-2)Gal(b1-4)GlcNAc(b1-3)Gal(b1-4)GlcNAc(b1-3)Gal(b1-4)GlcNAc
# Procedure, shortened: as §1
# [26] = target: Fuc(a1-2)Gal(b1-4)GlcNAc(b1-3)GalNAc
# Procedure, shortened: as §1
# [27] = target: Fuc(a1-2)Gal(b1-4)GlcNAc(b1-3)[Fuc(a1-2)Gal(b1-4)GlcNAc(b1-6)]GalNAc
# Procedure, shortened: as §1
# [28] = target: Fuc(a1-2)Gal(b1-4)GlcNAc(b1-3)[Fuc(a1-3)[Gal(b1-4)]GlcNAc(b1-6)]Gal(b1-4)Glc
# Procedure, shortened: as §1
# [29] = target: Fuc(a1-2)Gal(b1-4)GlcNAc(b1-6)GalNAc
# Procedure, shortened: as §1
# [30] = target: Fuc(a1-2)Gal(b1-4)GlcNAc6S
# Procedure, shortened: as §1
# [31] = target: Fuc(a1-2)Gal(b1-4)[Fuc(a1-3)]GlcNAc
# Procedure, shortened: as §1
# [32] = target: Fuc(a1-2)Gal(b1-4)[Fuc(a1-3)]GlcNAc(b1-2)Man(a1-3)[Fuc(a1-2)Gal(b1-4)[Fuc(a1-3)]GlcNAc(b1-2)Man(a1-6)]Man(b1-4)GlcNAc(b1-4)[Fuc(a1-6)]GlcNAc
# Procedure, shortened: as §1
# [33] = target: Fuc(a1-2)Gal(b1-4)[Fuc(a1-3)]GlcNAc(b1-2)[Fuc(a1-2)Gal(b1-4)[Fuc(a1-3)]GlcNAc(b1-4)]Man(a1-3)[Fuc(a1-2)Gal(b1-4)[Fuc(a1-3)]GlcNAc(b1-2)Man(a1-6)]Man(b1-4)GlcNAc(b1-4)GlcNAc
# Procedure, shortened: as §1
# [34] = target: Fuc(a1-2)Gal(b1-4)[Fuc(a1-3)]GlcNAc(b1-3)Gal(b1-4)[Fuc(a1-3)]GlcNAc
# Procedure, shortened: as §1
# [35] = target: Fuc(a1-2)Gal(b1-4)[Fuc(a1-3)]GlcNAc(b1-3)Gal(b1-4)[Fuc(a1-3)]GlcNAc(b1-3)Gal(b1-4)[Fuc(a1-3)]GlcNAc
# Procedure, shortened: as §1
# [36] = target: Fuc(a1-2)Gal(b1-4)[Fuc(a1-3)]GlcNAc(b1-3)GalNAc
# Procedure, shortened: as §1
# [37] = target: Fuc(a1-2)Gal(b1-4)[Fuc(a1-3)]GlcNAc(b1-3)[Neu5Ac(a2-6)Gal(b1-4)GlcNAc(b1-6)]Gal(b1-4)Glc
# Procedure, shortened: as §1
# [38] = target: Fuc(a1-2)Gal3S(b1-4)GlcNAc
# Procedure, shortened: as §1
# [39] = target: Fuc(a1-2)Gal6S(b1-3)GlcNAc
# Procedure, shortened: as §1
binder,measurement,setting,value
B1,glycan array binding signal (z-score),Fuc(a1-2)Gal,-0.306
same,glycan array binding signal (z-score),Fuc(a1-2)Gal(b1-3)GalNAc,-0.359
same,glycan array binding signal (z-score),[1],-0.457
same,glycan array binding signal (z-score),[2],-0.418
same,glycan array binding signal (z-score),[3],-0.482
same,glycan array binding signal (z-score),[4],-0.295
same,glycan array binding signal (z-score),[5],-0.29
same,glycan array binding signal (z-score),Fuc(a1-2)Gal(b1-3)GlcNAc,-0.347
same,glycan array binding signal (z-score),[6],1.63
same,glycan array binding signal (z-score),[7],-0.46
same,glycan array binding signal (z-score),[8],-0.382
same,glycan array binding signal (z-score),[9],-0.373
same,glycan array binding signal (z-score),[10],-0.373
same,glycan array binding signal (z-score),[11],-0.378
same,glycan array binding signal (z-score),[12],-0.346
same,glycan array binding signal (z-score),[13],-0.298
same,glycan array binding signal (z-score),[14],-0.397
same,glycan array binding signal (z-score),[15],0.297
same,glycan array binding signal (z-score),[16],-0.263
same,glycan array binding signal (z-score),[17],-0.142
same,glycan array binding signal (z-score),[18],-0.161
same,glycan array binding signal (z-score),Fuc(a1-2)Gal(b1-4)Glc,-0.041
same,glycan array binding signal (z-score),Fuc(a1-2)Gal(b1-4)Glc6S,-0.117
same,glycan array binding signal (z-score),Fuc(a1-2)Gal(b1-4)GlcNAc,-0.376
same,glycan array binding signal (z-score),[19],-0.346
same,glycan array binding signal (z-score),[20],0.786
same,glycan array binding signal (z-score),[21],-0.142
same,glycan array binding signal (z-score),[22],0.361
same,glycan array binding signal (z-score),[23],-0.047
same,glycan array binding signal (z-score),[24],-0.038
same,glycan array binding signal (z-score),[25],-0.427
same,glycan array binding signal (z-score),[26],-0.317
same,glycan array binding signal (z-score),[27],-0.14
same,glycan array binding signal (z-score),[28],-0.36
same,glycan array binding signal (z-score),[29],0.925
same,glycan array binding signal (z-score),[30],-0.011
same,glycan array binding signal (z-score),[31],-0.287
same,glycan array binding signal (z-score),[32],-0.304
same,glycan array binding signal (z-score),[33],-0.328
same,glycan array binding signal (z-score),[34],-0.089
same,glycan array binding signal (z-score),[35],-0.371
same,glycan array binding signal (z-score),[36],-0.138
same,glycan array binding signal (z-score),[37],0.026
same,glycan array binding signal (z-score),[38],-0.285
same,glycan array binding signal (z-score),[39],-0.144
